The supplement of paper PMC12217912
This is one part of the list. Sequences were assembled here from the parent chain. Values near 0.05 are background.

B1: TEV protease; numbered along this chain (parent)
chain: MGESLFKGPRDYNPISSSICHLTNESDGHTTSLYGIGFGPFIITNKHLFRRNNGTLVVQSLHGVFKVKDTTTLQQHLVDGRDMIIIRMPKDFPPFPQKLKFREPQREERICLVTTNFQTKSMSSMVSDTSCTFPSGDGIFWKHWIQTKDGQCGSPLVSTRDGFIVGIHSASNFTNTNNYFTSVPKNFMELLTNQEAQQWVSGWRLNADSVLWGGHKVFMVKPEEPFQPVKEATQL

Variants of: B1
Test: raw area under fraction-flipped curve 0-4 h after induction (AUC4h, not background-subtracted), DNA-recorder readout of cleavage of the substrate (dimensionless); higher = more cleavage of the substrate by the protease variant
Details: temperature: 34 °C; time window: 0-4 h after rhamnose induction
Description: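 In vivo DNA recorder in E. coli TOP10(DE3) ΔrhaA at 34 °C. Each TEVp single-site mutant (parent TEVp 0) is paired with a single-site variant of the 7-mer TEVs (canonical ENLYFQ|S). The substrate sits between flexible linkers in a Bxb1-sfGFP-TEVs-SsrA fusion, so cleavage stabilises Bxb1 and speeds flipping of a recombination array, read by NGS. The value is the raw area under the fraction-flipped curve over 0-4 h after rhamnose induction (AUC4h), with ≥20 reads per time point. It is not background-subtracted; inactive controls average about 0.047.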
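Further: Bxb1 expression induced with 0.2% (w/v) L-rhamnose at OD600 near 0.5, cultures sampled hourly, flipped fraction per protease–substrate barcode pair counted by paired-end Illumina sequencing.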

Variant	area with substrate DNLYFQS	area with substrate GNLYFQS	area with substrate HNLYFQS	area with substrate LNLYFQS	area with substrate NNLYFQS	area with substrate PNLYFQS	area with substrate TNLYFQS	area with substrate VNLYFQS	area with substrate WNLYFQS	area with substrate FNLYFQS	area with substrate INLYFQS	area with substrate KNLYFQS	area with substrate MNLYFQS	area with substrate SNLYFQS	area with substrate QNLYFQS	area with substrate YNLYFQS	area with substrate RNLYFQS
Q105V	0.0909	0.0721	0.0857	0.0733	0.0568	0.0709	0.0639	0.0894	0.0584	–	–	–	–	–	–	–	–
S135T	0.0601	0.0368	0.069	–	–	0.0512	0.0678	–	0.0547	0.0649	0.0582	0.059	0.0688	0.0694	–	–	–
F92Q	0.0883	0.0632	–	0.0575	0.0871	–	0.0665	0.05	0.0211	–	0.0632	0.0619	0.0587	0.0576	0.0839	0.0723	–
F92M	0.0849	0.0738	0.0654	0.0619	0.061	0.0577	0.0617	–	–	0.0882	–	0.0549	–	0.0627	–	0.0657	–
F92S	0.0763	–	–	0.0561	–	–	0.102	–	–	0.0629	–	–	0.0697	0.0659	0.097	–	–
L99T	0.0782	–	–	–	–	0.0864	0.0642	–	–	–	–	–	–	–	–	–	–
D79C	0.0372	0.0656	0.0556	0.0765	–	0.0677	–	0.0515	–	0.0573	–	0.0735	–	–	–	–	–
H143Q	0.0695	0.0525	0.0543	0.0752	–	0.0616	0.0556	0.0705	0.0451	–	0.0467	0.0681	0.0446	0.0487	–	0.0444	0.057
H143Y	0.128	–	0.0558	0.0405	0.0384	0.0633	–	–	0.0694	–	–	–	0.0654	0.0698	0.048	0.0707	–
C111E	0.087	0.0595	0.05	–	–	0.0605	0.0639	–	–	–	–	0.0539	–	0.028	–	–	–
C111Q	0.0594	–	–	0.0749	–	–	–	–	0.0582	–	–	0.0762	–	–	–	–	0.0673
I110W	0.0641	–	–	0.0541	0.0408	0.0619	0.0575	–	–	–	–	0.0483	–	–	–	–	–
K100P	0.103	0.0501	0.0505	0.0585	0.0521	0.0087	0.0627	0.08	–	–	–	0.0597	–	0.0687	0.0559	0.0614	–
W141L	0.0529	0.0497	0.0493	0.0555	0.0527	–	–	–	0.0452	–	0.0509	–	0.0353	–	–	0.0504	–
W141D	0.0588	0.0545	–	0.0435	–	0.057	–	–	0.0514	–	–	–	–	–	–	–	–
P94L	0.0775	–	–	–	–	–	0.0922	–	–	–	–	–	–	–	–	0.0637	–
P94H	0.0851	0.0588	0.0609	–	–	0.0835	0.083	–	0.0574	–	0.0621	0.0683	0.0638	–	–	0.0552	–
D82C	0.0563	0.0237	0.0542	–	–	0.0622	0.0647	–	0.041	–	–	0.0606	–	–	–	0.0497	–
D82T	0.0506	0.0536	0.0622	0.0441	0.0465	–	0.0584	0.0675	0.0975	0.0551	0.0505	0.0708	0.0539	–	–	0.0613	–

Variant	area with substrate DNLYFQS	area with substrate GNLYFQS	area with substrate HNLYFQS	area with substrate LNLYFQS	area with substrate NNLYFQS	area with substrate PNLYFQS	area with substrate TNLYFQS	area with substrate VNLYFQS	area with substrate WNLYFQS	area with substrate FNLYFQS	area with substrate INLYFQS	area with substrate KNLYFQS	area with substrate MNLYFQS	area with substrate SNLYFQS	area with substrate QNLYFQS	area with substrate YNLYFQS	area with substrate RNLYFQS
V78H	0.0677	–	0.0667	0.0535	–	0.0452	0.0523	–	0.0713	–	0.0809	0.062	0.0594	–	–	–	–
V78Q	0.0906	–	–	0.0621	–	–	–	–	–	–	–	–	0.0586	–	–	–	–
P89I	0.0568	–	0.042	–	0.0442	0.0485	0.0483	–	0.0157	–	–	0.0351	0.0591	0.0463	–	–	–
P89K	0.0804	–	0.074	–	–	0.0629	–	–	0.0396	0.0555	–	0.0567	0.0577	–	–	–	–
P89R	0.0967	0.0544	0.0635	–	0.0676	–	0.0606	0.0667	0.0487	0.0531	–	0.0657	0.0564	0.0581	–	–	0.0562
P89T	0.0736	0.0564	0.0683	–	0.0578	0.0833	–	0.0843	0.0537	–	0.0737	0.0382	–	0.0662	–	0.0532	–
S130F	0.0751	–	0.0541	0.0561	–	0.0572	0.0663	0.058	0.0621	0.0735	0.0916	0.0585	0.0839	0.0523	0.0669	–	–
S130T	0.08	–	0.0653	–	–	0.0634	0.0728	–	–	0.0812	–	0.0713	–	0.0722	–	–	–
S130A	0.082	0.105	0.0433	–	–	0.0607	–	–	0.0618	–	0.0657	–	–	–	–	0.0647	–
M83H	0.0579	–	0.0636	0.0312	–	0.0603	0.0523	0.0498	0.0554	–	0.0434	0.059	0.0594	0.052	–	0.0485	0.0599
M83N	0.0548	–	0.0496	0.0583	0.0622	0.0848	0.0789	–	0.0512	–	–	–	0.0376	0.0458	0.0627	–	–
T115H	0.0489	0.062	0.0703	0.0686	–	0.0757	0.054	–	0.0536	–	–	0.0611	0.0712	0.0614	–	0.0057	–
V126K	0.0684	–	0.0592	–	0.0542	0.0685	0.0728	–	0.0529	0.0658	0.0641	–	0.073	0.0805	–	0.0563	–
I139K	0.036	–	0.0459	–	–	–	0.0397	–	0.0826	–	0.0503	0.0685	0.0597	–	–	0.0569	0.0779
E107T	0.0839	–	–	0.0607	–	–	0.061	–	0.0665	–	–	–	–	0.0851	–	–	–
F133S	0.0791	–	0.0582	–	–	0.0633	0.0575	–	0.0657	–	0.0632	0.0534	0.0592	–	0.0786	0.0569	–
D137M	0.0769	0.0695	0.068	0.0584	–	0.0597	0.0657	0.0768	0.0863	0.0615	0.0633	0.0624	–	0.0657	0.0685	0.0688	–
I85Q	0.0635	0.0476	0.0407	0.0472	–	0.0406	0.054	0.057	0.0257	0.0495	0.0389	–	–	0.0523	–	0.0406	–
